{"source": "paper PMC4336329", "about": "(PLoS ONE, 2015)", "note": "About 14,000 (4.5%) of roughly 310,000 compounds showed an effect of 50% or more. The effect is printed as a negative number. This is one part of the list.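 Also: peak tail current of the secondary pulse compared with the same well before compound.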", "data": [{"molecular_target": "human ether-à-go-go-related gene (hERG) potassium channel (human, UniProt Q12809)", "sequence (Q12809 whole entry, looked up)": "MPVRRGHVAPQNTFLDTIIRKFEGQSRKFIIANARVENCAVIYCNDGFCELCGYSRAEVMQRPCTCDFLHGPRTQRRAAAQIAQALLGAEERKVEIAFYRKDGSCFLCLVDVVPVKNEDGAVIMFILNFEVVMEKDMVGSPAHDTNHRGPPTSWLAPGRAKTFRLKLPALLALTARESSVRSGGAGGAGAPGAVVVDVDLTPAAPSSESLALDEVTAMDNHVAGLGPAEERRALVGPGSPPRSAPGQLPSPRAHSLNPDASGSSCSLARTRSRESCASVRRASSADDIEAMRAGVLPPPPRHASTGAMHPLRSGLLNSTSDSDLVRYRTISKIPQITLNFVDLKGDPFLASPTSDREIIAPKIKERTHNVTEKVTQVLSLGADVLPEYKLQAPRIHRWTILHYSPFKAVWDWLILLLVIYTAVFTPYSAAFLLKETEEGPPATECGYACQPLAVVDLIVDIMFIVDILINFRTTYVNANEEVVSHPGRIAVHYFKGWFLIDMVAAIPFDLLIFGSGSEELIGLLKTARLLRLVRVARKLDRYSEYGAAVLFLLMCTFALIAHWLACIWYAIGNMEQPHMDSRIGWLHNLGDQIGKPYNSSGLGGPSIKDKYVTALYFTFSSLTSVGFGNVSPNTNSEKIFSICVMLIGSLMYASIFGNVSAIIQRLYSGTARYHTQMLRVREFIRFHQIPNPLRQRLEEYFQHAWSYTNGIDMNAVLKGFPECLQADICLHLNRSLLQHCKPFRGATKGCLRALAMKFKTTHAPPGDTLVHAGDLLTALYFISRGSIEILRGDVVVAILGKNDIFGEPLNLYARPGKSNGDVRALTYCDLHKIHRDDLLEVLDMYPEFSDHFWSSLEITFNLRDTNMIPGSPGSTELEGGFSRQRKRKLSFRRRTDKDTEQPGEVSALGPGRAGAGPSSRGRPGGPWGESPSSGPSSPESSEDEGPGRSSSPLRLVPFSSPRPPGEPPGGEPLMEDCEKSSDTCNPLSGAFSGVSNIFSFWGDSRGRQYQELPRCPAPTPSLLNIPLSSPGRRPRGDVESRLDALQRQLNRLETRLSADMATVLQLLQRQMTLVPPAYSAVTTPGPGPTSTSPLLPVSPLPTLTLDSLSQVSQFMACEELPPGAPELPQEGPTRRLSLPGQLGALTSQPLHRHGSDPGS", "experiment": "primary screen, population patch clamp on CHO cells stably expressing hERG", "units": {"hERG current change (%, negative = inhibition) at 10uM": "%"}, "values": [{"smiles": "NNc1nc(-c2ccccc2)nc(-c2ccccc2)c1Br", "hERG current change (%, negative = inhibition) at 10uM": 5.71}, {"smiles": "CC(=O)CCCCn1cnc2c1c(=O)n(C)c(=O)n2C", "hERG current change (%, negative = inhibition) at 10uM": 20.7}, {"smiles": "O=C(Cc1c(F)cccc1Cl)N1CCOCC1", "hERG current change (%, negative = inhibition) at 10uM": 6.36}, {"smiles": "Cc1cccc(N2C(=O)NC(=O)/C(=C/c3cc4c(cc3[N+](=O)[O-])OCO4)C2=O)c1", "hERG current change (%, negative = inhibition) at 10uM": 7.04}, {"smiles": "CC(C)(CCO)NC(=S)NC1CC2C=CC1C2", "note": "(stereo not shown)", "hERG current change (%, negative = inhibition) at 10uM": 0.0745}, {"smiles": "Nc1ccc(C(=O)c2ccc3c(c2)OCCO3)cc1N", "hERG current change (%, negative = inhibition) at 10uM": 2.85}, {"smiles": "O=C(CNc1cccc2ccccc12)N/N=C/C(Br)=C/c1ccccc1", "hERG current change (%, negative = inhibition) at 10uM": 4.86}, {"smiles": "O=C(CC1C(=O)NCCN1C(=O)Nc1ccc(F)cc1)Nc1ccc(F)cc1", "note": "(stereo not shown)", "hERG current change (%, negative = inhibition) at 10uM": 13.9}, {"smiles": "Cc1ccc(Cn2ccc(=O)c(OCc3c(Cl)cccc3Cl)c2C)cc1", "hERG current change (%, negative = inhibition) at 10uM": 10.1}, {"smiles": "CCOC(=O)N/N=C\\c1ccccc1OC/C=C/c1ccccc1", "hERG current change (%, negative = inhibition) at 10uM": 16.9}, {"smiles": "Cc1ccccc1-c1nnc(SCC(=O)Nc2c(C)n(C)n(-c3ccccc3)c2=O)o1", "hERG current change (%, negative = inhibition) at 10uM": -16.2}, {"smiles": "CCCn1c(=O)c2c(C(F)(F)F)cc(-c3ccco3)nc2n(CCC)c1=O", "hERG current change (%, negative = inhibition) at 10uM": 7}, {"smiles": "CC(CN1CCOCC1)OC(=O)c1cccc(Cl)c1.Cl", "note": "(stereo not shown)", "hERG current change (%, negative = inhibition) at 10uM": 10.4}, {"smiles": "O=C(Nc1nnc(-c2ccccc2F)s1)Nc1ccccc1F", "hERG current change (%, negative = inhibition) at 10uM": 23.3}, {"smiles": "CC1CCCC(C)N1/N=C/c1ccccc1OC(F)F", "note": "(stereo not shown)", "hERG current change (%, negative = inhibition) at 10uM": 11.4}, {"smiles": "COc1ccc(OCC(=O)N2CCN(C(=O)c3cccs3)CC2)cc1", "hERG current change (%, negative = inhibition) at 10uM": -43.3}, {"smiles": "COCCCN(C(=O)c1cc(C)oc1C)c1c(N)n(CC(C)C)c(=O)[nH]c1=O", "hERG current change (%, negative = inhibition) at 10uM": 7.78}, {"smiles": "O=C(NC1CCN(Cc2ccccc2Cl)CC1)c1ccccc1", "hERG current change (%, negative = inhibition) at 10uM": -65.2}, {"smiles": "CCN1CCN(C(=O)CCc2nnc(CCc3ccc(OC)cc3)o2)[C@@H](C)C1=O", "hERG current change (%, negative = inhibition) at 10uM": 7.31}, {"smiles": "Cn1c(=O)[nH]c(=O)c2c1nc(NCCN)n2CCOc1ccccc1", "hERG current change (%, negative = inhibition) at 10uM": 26.9}, {"smiles": "COc1c(O)ccc(/C=N\\NC(=O)c2ccc3c(c2)OCO3)c1[N+](=O)[O-]", "hERG current change (%, negative = inhibition) at 10uM": 12.7}, {"smiles": "CSCc1ccc(C(=O)N2CCCC(Nc3ccc4c(c3)OCCO4)C2)o1", "note": "(stereo not shown)", "hERG current change (%, negative = inhibition) at 10uM": -8.6}, {"smiles": "O=C(C[n+]1cc[nH]c1)c1ccc(Cl)cc1.[Cl-]", "hERG current change (%, negative = inhibition) at 10uM": 4.63}, {"smiles": "CN(C)c1ccccc1C(=O)c1ccccc1N(C)C", "hERG current change (%, negative = inhibition) at 10uM": -12.9}, {"smiles": "COc1ccc(C(=O)NCCCOc2cccc(NC(C)=O)c2)cc1", "hERG current change (%, negative = inhibition) at 10uM": -11.5}, {"smiles": "CNC(=S)N1N=C2c3ccccc3CCC2C1c1ccccc1Cl", "note": "(stereo not shown)", "hERG current change (%, negative = inhibition) at 10uM": 8.41}, {"smiles": "CCc1ccc2oc(C(=O)NCCc3ccc(S(N)(=O)=O)cc3)cc(=O)c2c1", "hERG current change (%, negative = inhibition) at 10uM": 12}, {"smiles": "Cc1cc(NC(=O)Cn2c(=O)oc3ccccc32)no1", "hERG current change (%, negative = inhibition) at 10uM": 2.61}, {"smiles": "O=C(NC1CCN(Cc2ccccc2)C1)c1cc(COc2ccc(F)cc2F)on1", "note": "(stereo not shown)", "hERG current change (%, negative = inhibition) at 10uM": -64.2}, {"smiles": "CN(C)c1ccc(NC(N)=S)cc1", "hERG current change (%, negative = inhibition) at 10uM": 9.61}, {"smiles": "CCn1nnnc1-c1ccc(OC)c(S(=O)(=O)N2CCCCC2)c1", "hERG current change (%, negative = inhibition) at 10uM": -21.6}, {"smiles": "Cc1cccc(OCC(=O)N=Nc2c(O)[nH]c3ccc([N+](=O)[O-])cc23)c1", "hERG current change (%, negative = inhibition) at 10uM": -2.59}, {"smiles": "CCOc1ccc2ccccc2c1/C=N/NC(=O)CNC(=O)Cc1ccccc1", "hERG current change (%, negative = inhibition) at 10uM": 10.4}, {"smiles": "O=C(COc1ccc2ccccc2c1)Nc1nccs1", "hERG current change (%, negative = inhibition) at 10uM": 0.185}, {"smiles": "O=C(CSc1nnc(-c2ccccc2)n1-c1ccccc1)c1ccc[nH]1", "hERG current change (%, negative = inhibition) at 10uM": 16.4}, {"smiles": "O=C(N/N=C/c1ccc(OC(=O)c2ccc([N+](=O)[O-])cc2)cc1)c1cccnc1", "hERG current change (%, negative = inhibition) at 10uM": 21.6}, {"smiles": "C=CCn1c(SCC(=O)c2cc(C)n(C(C)COC)c2C)nc2sc(C)c(C)c2c1=O", "note": "(stereo not shown)", "hERG current change (%, negative = inhibition) at 10uM": -15.4}, {"smiles": "Cc1ccc2ccc(C(Nc3cccc(C(F)(F)F)c3)c3cccnc3)c(O)c2n1", "note": "(stereo not shown)", "hERG current change (%, negative = inhibition) at 10uM": 11.9}, {"smiles": "COc1ccc(S(=O)(=O)NC2CC2)cc1C(=O)N1CCOCC1", "hERG current change (%, negative = inhibition) at 10uM": 25.4}, {"smiles": "CCOCCCNC(=O)C(NC(=O)c1ccc(=O)[nH]c1)c1ccccc1", "note": "(stereo not shown)", "hERG current change (%, negative = inhibition) at 10uM": 1.34}, {"smiles": "C/C(=N\\NC(=S)NCCc1ccccc1)c1cccc(Br)c1", "hERG current change (%, negative = inhibition) at 10uM": 25.1}, {"smiles": "COC(=O)c1sccc1NC(=O)Nc1ccccc1OC", "hERG current change (%, negative = inhibition) at 10uM": -41.4}, {"smiles": "Cc1nc(N2CCC(C)CC2)c2c(C)c(C(=O)Nc3ccc4c(c3)OCCO4)sc2n1", "hERG current change (%, negative = inhibition) at 10uM": 15.2}, {"smiles": "Clc1ccc(C[n+]2cc(-c3ccccc3)n3c2CCC3)cc1.[Cl-]", "hERG current change (%, negative = inhibition) at 10uM": -33.5}, {"smiles": "Cc1cc(NC(=O)Nc2cccc(Cl)c2)n(C(C)(C)C)n1", "hERG current change (%, negative = inhibition) at 10uM": 1.73}, {"smiles": "O=C(Nc1ccc(C(=O)O)cc1)/C(=C\\c1ccc(F)cc1)NC(=O)c1ccco1", "hERG current change (%, negative = inhibition) at 10uM": 23.7}, {"smiles": "CN(C)C(=O)c1ccc(Oc2ccc(C(=O)N(C)C)cc2)cc1", "hERG current change (%, negative = inhibition) at 10uM": -1.46}, {"smiles": "O=C(O)c1ccc([N+](=O)[O-])c2c1C(=O)c1ccccc1C2=O", "hERG current change (%, negative = inhibition) at 10uM": 23.5}, {"smiles": "CCOC(=O)C1(CC2CC2)CCN(C(=O)c2cc(C)nc3ccc(CC)cc23)CC1", "hERG current change (%, negative = inhibition) at 10uM": -32.4}, {"smiles": "OCC1(CCOc2ccccc2)CCN(Cc2ccc3cccc(F)c3n2)CC1", "hERG current change (%, negative = inhibition) at 10uM": -83}, {"smiles": "COc1cc(C)c(C)cc1S(=O)(=O)N1CCCCC1c1cccnc1", "note": "(stereo not shown)", "hERG current change (%, negative = inhibition) at 10uM": -3.94}, {"smiles": "COc1ccc(CNC(=O)C(C)OC(=O)c2cccs2)cc1", "note": "(stereo not shown)", "hERG current change (%, negative = inhibition) at 10uM": 1.28}, {"smiles": "CCNC(=O)N1CCN(C(=O)NCC)CC1", "hERG current change (%, negative = inhibition) at 10uM": 15.7}, {"smiles": "O=C(CSc1nc(-c2ccc(F)cc2)cc(C(F)(F)F)n1)NCc1cccs1", "hERG current change (%, negative = inhibition) at 10uM": 19.8}, {"smiles": "CNC(=O)NC(=O)CSc1nnc(-c2ccco2)n1-c1ccccc1", "hERG current change (%, negative = inhibition) at 10uM": 6.91}, {"smiles": "COc1ccc(C(=O)CSc2cc(C)[nH]c(=O)n2)cc1", "hERG current change (%, negative = inhibition) at 10uM": 20.4}, {"smiles": "Cc1ccccc1Nc1scc(-c2ccc(Br)cc2)[n+]1-c1ccccc1C.[Br-]", "hERG current change (%, negative = inhibition) at 10uM": 9.01}, {"smiles": "COc1ccc(/C=C2/C(=N)N3N=C(CC(=O)N4CCCC4)SC3=NC2=O)cc1", "hERG current change (%, negative = inhibition) at 10uM": 4.9}]}]}
